Each structure is given as a SMILES string. This is one part of the list. Many values rest on one well or one pass, so single values are uncertain.
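Note: cells treated in 1,536-well plates, then fixed and DAPI-stained, with nuclei counted from automated high-throughput microscope images.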

The assay relates to SkMel28. The assay is described as follows: cell count relative to DMSO control; melanoma cells; higher = more viable cells. Conditions: library dose: standard library concentration; 72 h.
The compound `CS(=O)(=O)c1ccc(C(=O)Nc2ccc(Cl)c(-c3ccccn3)c2)c(Cl)c1` [vismodegib] + COc1cc2ncnc(Nc3ccc(Oc4ccccc4)cc3)c2cc1OC [SrcI1] (first compound 5 µM, partner dose 10 µM) returned a cell count of 66.7%.

In turn, `NC1(c2ccc(-c3nc4ccn5c(=O)[nH]nc5c4cc3-c3ccccc3)cc2)CCC1` + O=C(O)C(=O)Nc1sc2c(c1C(=O)O)CCNC2 [TCS401] (first compound 2 µM, partner dose 8.33333 µM) had a cell count of 63.4%.

`NC1(c2ccc(-c3nc4ccn5c(=O)[nH]nc5c4cc3-c3ccccc3)cc2)CCC1` + COc1ccc(COc2ccc(Cc3cnc(N)nc3N)cc2OC)cc1 [GW2580] (first compound 2 µM, partner dose 5 µM) came in with a cell count of 42.6%.

Turning to `CS(=O)(=O)c1ccc(C(=O)Nc2ccc(Cl)c(-c3ccccn3)c2)c(Cl)c1` [vismodegib] + Cn1cc(/C=C2\C(=O)Nc3cccnc32)c2ccccc21 [GW441756] (first compound 5 µM, partner dose 2 µM), the cell count stood at 96.5%.

For the compound `NC1(c2ccc(-c3nc4ccn5c(=O)[nH]nc5c4cc3-c3ccccc3)cc2)CCC1` + CCN(CC)CCCCNc1ncc2cc(-c3cc(OC)cc(OC)c3)c(NC(=O)NC(C)(C)C)nc2n1 [PD173074] (first compound 2 µM, partner dose 0.5 µM), the cell count is 72.5%.

As for `C=C(c1ccc(C(=O)O)cc1)c1cc2c(cc1C)C(C)(C)CCC2(C)C` [Bexarotene] + COc1ccc(-c2ccc3c(N4CCOCC4)nc(N4C[C@@H](C)O[C@@H](C)C4)nc3n2)cc1CO [KU0063794] (first compound 10 µM, partner dose 0.1 µM), the cell count turned out to be 74.8%.

`NC1(c2ccc(-c3nc4ccn5c(=O)[nH]nc5c4cc3-c3ccccc3)cc2)CCC1` + c1cc(-c2cnn3cc(-c4ccc(OCCN5CCCCC5)cc4)cnc23)ccn1 [Dorsomorphin] (first compound 2 µM, partner dose 2 µM) showed a cell count of 59.8%.

In turn, `CN(c1ncccc1CNc1nc(Nc2ccc3c(c2)CC(=O)N3)ncc1C(F)(F)F)S(C)(=O)=O` + O=S(=O)(c1ccccc1)N(CC(F)(F)F)c1ccc(C(O)(C(F)(F)F)C(F)(F)F)cc1 [T0901317] (first compound 0.4 µM, partner dose 7 µM) gave a cell count of 61.9%.

Take `C=C(c1ccc(C(=O)O)cc1)c1cc2c(cc1C)C(C)(C)CCC2(C)C` [Bexarotene] + O=C1NC(=O)/C(=C/c2ccc(-c3ccc(F)cc3O)o2)S1 [AS252424] (first compound 10 µM, partner dose 5 µM): the cell count was found to be 82.7%.

`CN(c1ncccc1CNc1nc(Nc2ccc3c(c2)CC(=O)N3)ncc1C(F)(F)F)S(C)(=O)=O` + COc1cc2c(Oc3ccc4[nH]c(C)cc4c3F)ncnc2cc1OCCCN1CCCC1 [cediranib] (first compound 0.4 µM, partner dose 2 µM): the cell count stood at 78.5%.

Compound `CCCS(=O)(=O)Nc1ccc(F)c(C(=O)c2c[nH]c3ncc(Cl)cc23)c1F` + CCCCCCCCCCCC1=C(O)C(=O)C=C(O)C1=O [Embelin] (first compound 0.4 µM, partner dose 6 µM) gave a cell count of 63.9%.

The compound `CCCS(=O)(=O)Nc1ccc(F)c(C(=O)c2c[nH]c3ncc(Cl)cc23)c1F` + Cc1cc(N2CCOCC2)cc2[nH]c(-c3c(NC[C@@H](O)c4cccc(Cl)c4)cc[nH]c3=O)nc12 [BMS536924] (first compound 0.4 µM, partner dose 1 µM) registered a cell count of 47.4%.

On to `C=C(c1ccc(C(=O)O)cc1)c1cc2c(cc1C)C(C)(C)CCC2(C)C` [Bexarotene] + Cn1cc(/C=C2\C(=O)Nc3cccnc32)c2ccccc21 [GW441756] (first compound 10 µM, partner dose 2 µM), for which the cell count is 61.6%.

`C=C(c1ccc(C(=O)O)cc1)c1cc2c(cc1C)C(C)(C)CCC2(C)C` [Bexarotene] + C[C@@H]1CCN(C(=O)CC#N)C[C@@H]1N(C)c1ncnc2[nH]ccc12 [CP690550] (first compound 10 µM, partner dose 5 µM) registered a cell count of 84.1%.

Compound `C=C(c1ccc(C(=O)O)cc1)c1cc2c(cc1C)C(C)(C)CCC2(C)C` [Bexarotene] + N#Cc1c(O)c2c(-c3ccc(-c4ccccc4O)cc3)csc2[nH]c1=O [A769662] (first compound 10 µM, partner dose 10 µM) had a cell count of 70.7%.

In turn, `C=C(c1ccc(C(=O)O)cc1)c1cc2c(cc1C)C(C)(C)CCC2(C)C` [Bexarotene] + Cc1cc([N+](=O)[O-])ccc1NS(=O)(=O)c1cc(Cl)ccc1Cl [FH535] (first compound 10 µM, partner dose 5 µM) came in with a cell count of 33.8%.

Consider `CCCS(=O)(=O)Nc1ccc(F)c(C(=O)c2c[nH]c3ncc(Cl)cc23)c1F` + COc1cc2c(Oc3ccc4[nH]c(C)cc4c3F)ncnc2cc1OCCCN1CCCC1 [cediranib] (first compound 0.4 µM, partner dose 2 µM), for which the cell count was 65.9%.

As to `C=C(c1ccc(C(=O)O)cc1)c1cc2c(cc1C)C(C)(C)CCC2(C)C` [Bexarotene] + CCN(CC)CCCCNc1ncc2cc(-c3cc(OC)cc(OC)c3)c(NC(=O)NC(C)(C)C)nc2n1 [PD173074] (first compound 10 µM, partner dose 0.5 µM), the cell count stood at 78.8%.

`C=C(c1ccc(C(=O)O)cc1)c1cc2c(cc1C)C(C)(C)CCC2(C)C` [Bexarotene] + CC(C)CCN1c2nc(Nc3cc(F)c(O)c(F)c3)ncc2N(C)C(=O)C1C [BID1870] (first compound 10 µM, partner dose 1 µM) gave a cell count of 49.6%.

Take `CS(=O)(=O)c1ccc(C(=O)Nc2ccc(Cl)c(-c3ccccn3)c2)c(Cl)c1` [vismodegib] + O=C(Nc1ccccc1)c1cc([N+](=O)[O-])ccc1Cl [GW9662] (first compound 5 µM, partner dose 10 µM): the cell count was found to be 66.2%.

In turn, `CS(=O)(=O)c1ccc(C(=O)Nc2ccc(Cl)c(-c3ccccn3)c2)c(Cl)c1` [vismodegib] + c1cc(-c2cnn3cc(-c4ccc(OCCN5CCCCC5)cc4)cnc23)ccn1 [Dorsomorphin] (first compound 5 µM, partner dose 2 µM) displayed a cell count of 62.2%.

In turn, `CN(c1ncccc1CNc1nc(Nc2ccc3c(c2)CC(=O)N3)ncc1C(F)(F)F)S(C)(=O)=O` + O=C1NC(=O)/C(=C/c2ccc(-c3ccc(F)cc3O)o2)S1 [AS252424] (first compound 0.4 µM, partner dose 5 µM) yielded a cell count of 91.5%.

`CS(=O)(=O)c1ccc(C(=O)Nc2ccc(Cl)c(-c3ccccn3)c2)c(Cl)c1` [vismodegib] + CCN(CC)CCCCNc1ncc2cc(-c3cc(OC)cc(OC)c3)c(NC(=O)NC(C)(C)C)nc2n1 [PD173074] (first compound 5 µM, partner dose 0.5 µM): the cell count is 115%.

On to `C=C(c1ccc(C(=O)O)cc1)c1cc2c(cc1C)C(C)(C)CCC2(C)C` [Bexarotene] + O=c1cc(-c2cccc3c2Sc2ccccc2S3)oc(N2CCOCC2)c1 [KU55933] (first compound 10 µM, partner dose 5 µM), for which the cell count was found to be 87.3%.

As for `NC1(c2ccc(-c3nc4ccn5c(=O)[nH]nc5c4cc3-c3ccccc3)cc2)CCC1` + O=c1cc(-c2cccc3c2Sc2ccccc2S3)oc(N2CCOCC2)c1 [KU55933] (first compound 2 µM, partner dose 5 µM), the cell count came out at 49%.

Regarding `NC1(c2ccc(-c3nc4ccn5c(=O)[nH]nc5c4cc3-c3ccccc3)cc2)CCC1` + COc1cc2ncnc(Nc3ccc(Oc4ccccc4)cc3)c2cc1OC [SrcI1] (first compound 2 µM, partner dose 10 µM), the cell count came out at 42.8%.

In the case of `CCCS(=O)(=O)Nc1ccc(F)c(C(=O)c2c[nH]c3ncc(Cl)cc23)c1F` + COc1ccc(COc2ccc(Cc3cnc(N)nc3N)cc2OC)cc1 [GW2580] (first compound 0.4 µM, partner dose 5 µM), the cell count is 52.8%.

Consider `CCCS(=O)(=O)Nc1ccc(F)c(C(=O)c2c[nH]c3ncc(Cl)cc23)c1F` + Oc1nc(-c2ccc(C(F)(F)F)cc2)nc2c1CSCC2 [XAV939] (first compound 0.4 µM, partner dose 10 µM), for which the cell count was determined as 47.4%.

In turn, `CN(c1ncccc1CNc1nc(Nc2ccc3c(c2)CC(=O)N3)ncc1C(F)(F)F)S(C)(=O)=O` + COc1cc(N2CCC(N3CCN(C)CC3)CC2)ccc1Nc1ncc(Cl)c(Nc2ccccc2S(=O)(=O)C(C)C)n1 [NVP-TAE684] (first compound 0.4 µM, partner dose 0.4 µM) registered a cell count of 80.8%.

In the case of `CCCS(=O)(=O)Nc1ccc(F)c(C(=O)c2c[nH]c3ncc(Cl)cc23)c1F` + c1cc(-c2cnn3cc(-c4ccc(OCCN5CCCCC5)cc4)cnc23)ccn1 [Dorsomorphin] (first compound 0.4 µM, partner dose 2 µM), the cell count came out at 50%.

In turn, `NC1(c2ccc(-c3nc4ccn5c(=O)[nH]nc5c4cc3-c3ccccc3)cc2)CCC1` + O=C1NC(=O)/C(=C/c2ccc(-c3ccc(F)cc3O)o2)S1 [AS252424] (first compound 2 µM, partner dose 5 µM) returned a cell count of 51.2%.

Take `CCCS(=O)(=O)Nc1ccc(F)c(C(=O)c2c[nH]c3ncc(Cl)cc23)c1F` + Cc1cc([N+](=O)[O-])ccc1NS(=O)(=O)c1cc(Cl)ccc1Cl [FH535] (first compound 0.4 µM, partner dose 5 µM): the cell count amounted to 38.8%.

`CN(c1ncccc1CNc1nc(Nc2ccc3c(c2)CC(=O)N3)ncc1C(F)(F)F)S(C)(=O)=O` + CC(C)CCN1c2nc(Nc3cc(F)c(O)c(F)c3)ncc2N(C)C(=O)C1C [BID1870] (first compound 0.4 µM, partner dose 1 µM) yielded a cell count of 55.8%.

The record behind these values is the supplement of paper PMC4604168 (melanoma cell lines).
